Assay results taken from patent publication US6812335B1, “Human polypeptide receptors for lysophospholipids and sphingolipids and nucleic acids encoding the same” (The Regents of the University of California, priority 1999, dated 2004).

Key:
Edg-3 receptor mRNA = experiment: Effect of apoptotic stimuli on Edg-3 receptor mRNA expression in Tsup-1 cells (radioactive RT-PCR); settings: 16 h with apoptotic stimulus (30 ng anti-Fas; 0.2 ug anti-CD2; 0.5 ug each anti-CD3 and anti-CD28; 5 uM C6 ceramide)
Experimental: (§1) The methodology employed is more fully described in Goetzl et al., J. Immunol (1999), supra. Briefly, total cellular RNA was extracted from suspensions of Tsup-1 cells by the TRlzol method (Gibco-BRL, Grand Island, N.Y.), and a Superscript kit (Gibco-BRL) was used for reverse transcription (RT) synthesis of cDNAs. Polymerase chain reaction (PCR) began with a “hot start” at 94° C. for 3 min, Taq DNA polymerase was added and amplification was carried out with 35 cycles of 30 s at 94° C., 2 min at 55° C. and 1 min at 72° C. Two uCi of [alpha-^32P] dCTP were added to some sets of reaction mixtures to allow quantification of mRNA encoding each Edg receptor relative to that of the standard G3PDH. Kaltreider et al., Am J. Resp. Cell. Mol. Biol. 16:133 (1996).
(§2) Oligonucleotide primer pairs were: 5′-d[…] AAC (SEQ ID NO: 14) and 5′-d[…] (SEQ ID NO: 15) for G3PDH; 5′-[…] (SEQ ID NO: 16) and 5′-[…] (SEQ ID NO: 17) for Edg-1 (1100 bp); 5′-d[…] (SEQ ID NO: 18) and 5′-GTGGTC […] (SEQ ID NO: 19) for Edg-2 (621 bp); 5′-dCAAAATG […] (SEQ ID NO: 20) and 5′-d[…] CGTTC (SEQ ID NO: 21) for Edg-3 (701 bp); 5′-d[…] CGT (SEQ ID NO: 22) and 5′-d[…] […]
(§3) PCR products were resolved by electrophoresis in a 2 g/100 ml agarose gel with ethidium bromide staining. […] Relative quantities of cDNA encoding each Edg receptor also were calculated by the ratio of radioactivity to that in the corresponding G3PDH band. […]

Edg-2 receptor mRNA = experiment: Effect of apoptotic stimuli on Edg-2 receptor mRNA expression in Tsup-1 cells (radioactive RT-PCR); settings: 16 h with apoptotic stimulus (30 ng anti-Fas; 0.2 ug anti-CD2; 0.5 ug each anti-CD3 and anti-CD28; 5 uM C6 ceramide)
Experimental: as §1, §2, §3

Edg-4 receptor mRNA = experiment: Effect of apoptotic stimuli on Edg-4 receptor mRNA expression in Tsup-1 cells (radioactive RT-PCR); settings: 16 h with apoptotic stimulus (30 ng anti-Fas; 0.5 ug each anti-CD3 and anti-CD28; 5 uM C6 ceramide)
Experimental: as §1, §2, §3

In the case of `CCCCCCCCCCCCC/C=C/[C@@H](O)[C@H](CO)NC(=O)CCCCC` [C6-Ceramide, C6 ceramide], the “ratio of 32P in the Edg-3 receptor cDNA band to that in the G3PDH band” value (Edg-3 receptor mRNA) was 0.17, the “ratio of 32P in the Edg-2 receptor cDNA band to that in the G3PDH band” value (Edg-2 receptor mRNA) was 0.05 and the “ratio of 32P in the Edg-4 receptor cDNA band to that in the G3PDH band” value (Edg-4 receptor mRNA) was 0.12.
